# According to PubChem BioAssay AID1508642 (National Center for Advancing Translational Sciences (NCATS), 2021):
# Out of some 43,000 compounds screened, about 200 (0.47%) were called active. Another 12% or so got no clear call; they are omitted. The call rests on the fitted dose curve; in most records, active means well fitted cell-killing curve with a large enough effect; inconclusive means small, poorly fitted or top-dose-only effect, or effect the other way; inactive means flat fitted curve, though single readings scatter. The list shows a part of the results.
# Assay: Cell viability qHTS assay in S16 Pmp22-F2sN cells; further: nearly all actives have a fitted effect of over 65% in size
# Conditions: S16 Pmp22-F2sN Schwann cells (luciferase reporters placed in the Pmp22 gene) viability, CellTiter-Glo, 24 h; series mostly up to 57.5 µM; activity change, negative = cytotoxicity: at the top concentration
# Outline: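 S16 Schwann cells carrying the Pmp22-F2sN reporter, seeded in 1536-well format, were exposed to library compounds for 24 h at 37C. Viability was read as CellTiter-Glo luminescence after 15 min at room temperature.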
# On the % scale 0 is the no-effect control and ±100 the full control effect.
row,Structure (SMILES),"activity change, negative = cytotoxicity"
1,CC(=O)Nc1ccc(NC(=O)Cn2nc(C(=O)Nc3ccc(C)cc3)ccc2=O)cc1,inactive: -4.89%
2,CCOc1ccc(-c2cc3c(=O)n(CC(=O)NCc4ccc(Cl)cc4)ccn3n2)cc1,inactive: 4.57%
3,O=C(O)CCn1cnc2onc(-c3cc(F)cc(F)c3)c2c1=O,inactive: 24.5%
4,CCCOc1ccc(Oc2nc(NCC(C)C)nc(N3CCOCC3)n2)nn1,inactive: 0.0332%
5,Cc1ccc(-n2c(SCC(=O)O)nc3sc4c(c3c2=O)CCCC4)cc1,inactive: 11.6%
6,CC1CCc2nc3ncn(Cc4ccccc4F)c(=O)c3cc2C1 (stereo unspecified),inactive: 2.17%
7,O=C(Nc1ccc(OCc2cc(=O)n3c4c(sc3n2)CCCC4)cc1)c1ccccc1,inactive: 3.12%
8,CCOc1ccc(OCC)c(NS(=O)(=O)c2c(C(=O)N3CCC(C)CC3)c(C)n(C)c2C)c1,inactive: 8.22%
9,COc1ccc(N2CC(NC(=O)c3ccc4c(c3)OCO4)CC2=O)cc1 (stereo unspecified),inactive: 8.3%
10,COc1ccc(NC(=O)CN(c2ccc(C)cc2)S(=O)(=O)c2cccc3nonc23)cc1OC,inactive: -1.57%
11,Cc1ccc(CNS(=O)(=O)c2ccc(-c3cc(C(F)(F)F)on3)s2)cc1,inactive: -1.86%
12,Nc1c(C(=O)Nc2ccccc2)nnn1Cc1ccc(F)cc1Cl,inactive: 0.269%
13,Cc1ccc(N2C(=O)[C@@H]3CSC(c4ccc(F)cc4)N3C2=O)cc1 (stereo partly specified),inactive: 2.81%
14,CCOc1ccccc1C(=O)Nc1nc2c(s1)CC(C)CC2 (stereo unspecified),inactive: 1.01%
15,COC(=O)Cn1c(=O)c2c(nc3n2CCN3c2ccc(F)cc2)n(C)c1=O,inactive: 13.5%
16,O=C(NCc1ccccc1Cl)NCc1noc2ccccc12,inactive: 5.54%
17,Cc1nn(C(C)(C)C)c(OC(=O)C(C)(C)C)c1Sc1ccccc1,inactive: -0.633%
18,O=C(Nc1ccc(Cl)c(-c2nc3cc(Cl)ccc3o2)c1)c1cc([N+](=O)[O-])ccc1N1CCOCC1,inactive: 2.64%
19,COc1cc(NC(=O)COCc2cc(-c3ccc(F)cc3)on2)cc(OC)c1OC,inactive: -27.4%
20,Cc1ccc(C(=O)Nc2cc3c(cc2N2CCCC2)n(C)c(=O)c(=O)n3C)cc1,inactive: 14.5%
21,CCOC(=O)c1ccc(NC(=O)C(Cc2ccccc2)NS(=O)(=O)c2ccc(Br)s2)cc1 (stereo unspecified),inactive: -2.94%
22,CCOC(=O)c1c(C)oc2nc(C)nc(NCc3ccccc3OCC)c12,inactive: 0.94%
23,Cc1cc(C)cc(Nc2sc(C(=O)c3ccccc3)c(N)c2S(=O)(=O)c2ccccc2)c1,inactive: -17.6%
24,CC(=O)Nc1ccc(C2Nc3c(C)cc(C)cc3-c3cc(C)nn32)cc1 (stereo unspecified),inactive: -8.12%

row,Structure (SMILES),"activity change, negative = cytotoxicity"
1,Cc1ccc(S(=O)(=O)NCCSc2nnnn2-c2ccc(Cl)c(C(=O)O)c2)cc1,inactive: 2.3%
2,O=C(NCc1ccccc1Cl)C1CCCN(c2ncnc3onc(-c4ccc(F)cc4)c23)C1 (stereo unspecified),inactive: -7.88%
3,CCCc1nc2ccccc2n2c(-c3cccc(C)c3)c3c(=O)n(C)c(=O)n(C)c3c12,inactive: 2.93%
4,CCc1nn(CC(=O)NC(C)c2ccccc2)c(=O)c2cc3sccc3n12 (stereo unspecified),inactive: 3.01%
5,CCOC(=O)C1=C(CS(=O)(=O)c2ccc(F)cc2)NC(=O)NC1c1ccc(OCC)c(OC)c1 (stereo unspecified),inactive: 7.37%
6,CC(C)CCNC(=O)[C@@H](c1ccccc1)N1Cc2ccccc2C1=O,inactive: 0.562%
7,CCOc1ccc(NC(=O)Cn2nnc(C(=O)Nc3ccc(OCC)cc3)c2N)cc1,inactive: 1.18%
8,Cc1ccc(C)c(N2CCN(c3cc(C)nc4c(-c5ccc(Cl)cc5)c(C)nn34)CC2)c1,inactive: 12%
9,Cc1cc(C)cc(OCC(=O)NCC2(N(C)C)CCCCC2)c1,inactive: 5.84%
10,O=C(COc1ccccc1-c1nc(-c2ccccc2)no1)Nc1ccccc1[N+](=O)[O-],inactive: 9.03%
11,CCCc1cc(=O)n2[nH]c(NCc3ccccc3OC)nc2n1,inactive: 6.81%
12,Cc1ccc(S(=O)(=O)N2CCC(c3ccncc3)CC2)c(C)c1,inactive: -25%
13,Cc1cccc(CN2CCc3nc(N4CCN(c5ccccn5)CC4)ncc3C2)c1,inactive: 3.8%
14,CCc1ccc(NC(=O)Cn2c(=O)n(CCC(=O)NCc3ccc4c(c3)OCO4)c(=O)c3ccccc32)cc1,inactive: 0.473%
15,Cc1cc(NC(=O)c2cc(-c3ccc(Cl)cc3)on2)nn1Cc1ccc(Cl)cc1,inactive: -1.79%
16,CCC1CN(C(=O)Nc2cc(C)cc(C)c2)c2ccccc2O1 (stereo unspecified),inactive: -19.7%
17,CC(=O)c1ccc(NC(=O)CCc2c(C)nc3cc(-c4ccc(Cl)cc4)nn3c2C)cc1,inactive: -5.89%
18,Cc1ccc(C)c(NC(=O)CN(CCc2ccccc2)S(=O)(=O)c2ccccc2)c1,inactive: 3.79%
19,Cc1cccc(Cc2c(C)nc3nc(SCc4ccccc4C)nn3c2C)c1,inactive: -28.1%
20,COc1cccc(Cn2c(=O)n(-c3ccccc3C)c(=O)c3c2c2cc(C)ccc2n3C)c1,inactive: 3.85%
21,COc1cccc(NC(=O)C2CCN(C(=O)N3CC(C)Oc4ccccc43)CC2)c1 (stereo unspecified),inactive: -1.66%
22,Cc1ccc(CNC(=O)CN2C(=O)C3CCCCN3c3ccc(C(=O)N4CCCC4)cc32)cc1 (stereo unspecified),inactive: -5.46%
23,COc1ccc(Cl)cc1C(=O)Nc1ccc(-c2nnc3n2CCCCC3)cc1,inactive: 11.9%
24,O=C(NCc1ccccc1Cl)c1ccc2c(O)c(S(=O)(=O)c3ccccc3)c(=O)[nH]c2c1,inactive: 4.07%

row,Structure (SMILES),"activity change, negative = cytotoxicity"
1,CCCCOc1ccc(CNC(=O)c2cnc3sc(N4CCOCC4)nn3c2=O)cc1,inactive: -5.74%
2,COc1cccc(OCc2nc3ccccc3n2CCOc2ccccc2C)c1,inactive: 6.81%
3,CN(C)S(=O)(=O)c1ccc2c(c1)nnn2CCNC(=O)Nc1ccc(Br)cc1,inactive: -14.6%
4,O=C(C1CC1)N1CCN(c2nc3ccc(F)cc3s2)CC1,inactive: -15%
5,Cc1ccc(C)c(Nc2nn3c(=O)c4ccc(C(=O)NC5CCCCC5)cc4nc3s2)c1,inactive: -19.4%
6,COc1ccc(CCNC(=O)CCCCn2c(=O)c3ccccc3n(Cc3ccc(F)cc3Cl)c2=O)cc1OC,inactive: 5.07%
7,Cc1ccc(C(=O)NCC(c2cccnc2)N2CCc3ccccc32)cc1C (stereo unspecified),inactive: 0.918%
8,Fc1ccc(-c2cc(-c3ccccc3)c3c(n2)-c2cc(F)ccc2OC3)cc1,inactive: 8.19%
9,Cc1ccc(-c2c(C)n3c4c(=O)n(C)c(=O)n(C)c4nc3n2-c2cccc(O)c2)cc1,inactive: 7.49%
10,CC1CCN(S(=O)(=O)c2cc3c4c(c2)CC(=O)N4CCC3)CC1,inactive: -0.0589%
11,COc1ccc(S(=O)(=O)NCC(c2ccco2)N2CCOCC2)cc1 (stereo unspecified),inactive: -13.1%
12,Cc1cc(C)cc(NC(=O)CSc2oc(-c3cccs3)nc2S(=O)(=O)c2ccccc2)c1,inactive: 6.35%
13,COc1ccccc1Nc1nn2c(=O)c3ccc(C(=O)N4CCCCC4)cc3nc2s1,inactive: -13.3%
14,Cc1cccc(C)c1N1CC(c2nc3ccccc3n2CC(=O)OC(C)C)CC1=O (stereo unspecified),inactive: 17.3%
15,CCOC(=O)c1cc(S(=O)(=O)N2CCN(c3cc(C)ccc3C)CC2)[nH]n1,inactive: -2.96%
16,COc1cc(-c2ccno2)ccc1S(=O)(=O)N1CCN(c2ccccc2F)CC1,inactive: -7.03%
17,COC(=O)c1ccc(NC(=O)C(=O)NCCc2sc(-c3cccc(F)c3)nc2C)cc1,inactive: 1.5%
18,CCCN(CCC)C(=O)CSc1nc2ccccc2c(=O)n1Cc1ccco1,inactive: -18.5%
19,COc1ccc(CC(=O)NCc2nc3cccnc3n2Cc2ccc(C)cc2)cc1,inactive: 14.3%
20,COc1ccc(NC(=O)CSc2nc3cc(OC)c(OC)cc3c3nc(-c4ccccc4)nn23)cc1Cl,inactive: 2.47%
21,Cc1cc(C)c(NC(=O)CCCN2C(=O)COc3ccc(C)cc32)c(C)c1,inactive: -3.39%
22,COc1ccccc1N1CCN(S(=O)(=O)c2c(C)sc3ncn(CC(=O)Nc4ccc(C(F)(F)F)cc4)c(=O)c23)CC1,inactive: 4.78%
23,CC(=O)c1ccc(NC(=O)C2CCCN(S(=O)(=O)c3ccc4c(c3)CCCN4C(C)=O)C2)cc1 (stereo unspecified),inactive: -16.6%
24,O=C(Cn1ccc2cc(S(=O)(=O)N3CCCCC3)ccc21)NCCc1ccc(Cl)cc1,inactive: -23.9%

row,Structure (SMILES),"activity change, negative = cytotoxicity"
1,COC(=O)c1sc(NC(=O)c2cc3nc(-c4ccc(Br)cc4)cc(C(F)(F)F)n3n2)c(C(=O)OC)c1C,inactive: -20.4%
2,CCc1ccc(NC(=O)c2cc3nc(-c4ccc(C)cc4)cc(C(F)(F)F)n3n2)cc1,inactive: -0.829%
3,O=C(O)Cc1sc(Nc2ccccc2Cl)nc1-c1ccccc1,inactive: 16.8%
4,CCOC(=O)c1c(NC(=O)Cc2coc3cc(C)ccc23)sc2c1CCCC2,inactive: 10.4%
5,Cc1ccc(OCC(=O)Nc2ccccc2C(=O)OCc2cc(=O)n3ccsc3n2)cc1C,inactive: -2.66%
6,COc1ccc(CCNC(=O)CN(c2cc(C(F)(F)F)ccc2Cl)S(C)(=O)=O)cc1,inactive: 20.7%
7,O=C(COc1ccc(F)cc1)Nc1ccccc1C(=O)OCc1cc(=O)n2nc(C3CC3)sc2n1,inactive: 5.89%
8,Cc1nc2nc(SCc3ccc(F)cc3Cl)nn2c(C)c1Cc1ccccc1,inactive: -5.82%
9,CCOc1ccc(-c2cn3c(n2)sc2cc(C(=O)NCCCc4ccccc4)ccc23)cc1,inactive: 3.67%
10,CCC1CN(C(=O)N2CCC(C(=O)Nc3cc(C)ccc3C)CC2)c2ccccc2O1 (stereo unspecified),inactive: 3.67%
11,COc1cc(C2c3c(oc4ccccc4c3=O)C(=O)N2c2nncs2)cc(OC)c1OC (stereo unspecified),inactive: 2.42%
12,Cc1cccc(-c2cc(NC(=O)C(C)(C)C)n(-c3ccccc3)n2)c1,inactive: -4.37%
13,Cc1nc2nc(-c3ccc(Cl)cc3Cl)nn2c(C)c1CCC(=O)Nc1ccc(F)cc1,inactive: 8.91%
14,CCCCN(C)CCCNC(=O)CN1C(=O)COc2ccc(S(=O)(=O)N3CCOCC3)cc21,inactive: 9.95%
15,O=C(CS(=O)(=O)c1cccc2nsnc12)NCc1ccc(Cl)cc1,inactive: -1.8%
16,COc1ccc(-c2c(C)nn3c4c(cnc23)C(=O)CC(c2ccccc2)C4)cc1 (stereo unspecified),inactive: 5.87%
17,CCc1ccc(CNC(=O)CCSCc2ccccc2F)cc1,inactive: 11%
18,O=C(CSc1nc(-c2ccccc2)no1)N1CCN(c2ccccc2F)CC1,inactive: 3.2%
19,COc1cccc(C2=CC(c3ccc(OC)c(OC)c3OC)n3ncnc3N2)c1 (stereo unspecified),inactive: -5.04%
20,CCN(C(=O)Cc1nc(-c2ccc(OC)cc2)no1)c1cccc(Cl)c1,inactive: -5.39%
21,O=C(Cn1c(=O)nc(-c2ccccc2)c2ccccc21)Nc1ccc(Cl)c(C(F)(F)F)c1,inactive: 2.04%
22,COc1ccccc1OCCn1c(-c2ccc(Cl)cc2)nc2ccccc2c1=O,inactive: -2.14%
23,COc1ccc(C(=O)c2cn(CC(=O)Nc3ccc4c(c3)OCCO4)c3ccc(OC)cc3c2=O)cc1,inactive: -5.8%
24,Cc1ccc(C(C)C)c(OCC(=O)Nc2cccc(NC(=O)c3ccco3)c2)c1,inactive: -1.97%
